Data taken from the BET-seq Pho4 binding data (Le et al. 2018).
The list shows a part of the results. These are noisy estimates, calculated here from bound and input reads.

These sequences were tested against T1, Pho4 (S. cerevisiae) (UniProt P07270) (assay: relative binding free energy (BET-seq); higher = weaker binding). Details: reference: library average.
T1 sequence: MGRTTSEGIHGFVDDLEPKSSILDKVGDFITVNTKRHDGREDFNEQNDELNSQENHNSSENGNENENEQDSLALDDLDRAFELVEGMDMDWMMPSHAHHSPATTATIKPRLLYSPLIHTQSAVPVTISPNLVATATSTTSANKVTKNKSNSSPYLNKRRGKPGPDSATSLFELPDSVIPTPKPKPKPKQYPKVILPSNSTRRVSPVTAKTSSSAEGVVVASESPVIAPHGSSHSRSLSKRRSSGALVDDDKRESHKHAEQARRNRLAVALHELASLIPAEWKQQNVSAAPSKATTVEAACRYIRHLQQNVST

Relative binding free energy, 0.2 kcal/mol:
AATGTCACGTGTCTGG
GATATCACGTGGTTGG

Relative binding free energy, 0.06 kcal/mol:
GAGTGCACGTGTCTTG
GGCATCACGTGCGGTG
TAGGGCACGTGGAGAT
ATTGTCACGTGTTCTT
GCTATCACGTGGTGTG
TTAAACACGTGTAGGA
TGTTACACGTGGGATT

Relative binding free energy, -0.11 kcal/mol:
ACTGGCACGTGCTTGT
AATGGCACGTGGTTTA
ATATACACGTGGTAAT
AAGTGCACGTGTTGTC

Relative binding free energy, 0.4 kcal/mol:
GGTTTCACGTGTCTGA

Relative binding free energy, -0.16 kcal/mol:
TGTCGCACGTGGTAGA

Relative binding free energy, 0.1 kcal/mol:
GTTTGCACGTGGCTGA
TGGCACACGTGTATGA
GCTCGCACGTGTGGTT

Relative binding free energy, 0.44 kcal/mol:
TGGTTCACGTGATTTA

Relative binding free energy, -0.2 kcal/mol:
CGATGCACGTGGGTAG
ATGCGCACGTGGTTAT
GCTAGCACGTGGTGTA

Relative binding free energy, -0.17 kcal/mol:
ATATACACGTGGGGTA
TAAGGCACGTGGGGTC

Relative binding free energy, 0.01 kcal/mol:
GTAGCCACGTGTTGGG
CAGTGCACGTGTGAGT
CGGATCACGTGGGGCA
ATGGGCACGTGAATAT
GGTGCCACGTGTGATA

Relative binding free energy, -0.01 kcal/mol:
GTCTGCACGTGCTGGT
AATGTCACGTGGGGAT
ACTGACACGTGGTTGG
TATGACACGTGGCGAG

Relative binding free energy, -0.04 kcal/mol:
CGATGCACGTGTCGGG
GGTAACACGTGGGTAG
TGGCTCACGTGGGGTG
ATTCGCACGTGTGTAT
CGGGTCACGTGGGTCT
CGCGTCACGTGGTGTG

Relative binding free energy, 0.02 kcal/mol:
TATGCCACGTGTTAGT
TAGTACACGTGGTTTT
GTTCGCACGTGTATTT
TATGTCACGTGCTGTG
TTATGCACGTGATGGC

Relative binding free energy, -0.08 kcal/mol:
TGTGGCACGTGGACGG
TGCGGCACGTGTTTTG
GTGAGCACGTGGGAGA
TTGATCACGTGGGAGC
CTGAGCACGTGCGTTG
GGGGGCACGTGTCTGT

Relative binding free energy, -0.13 kcal/mol:
AGAGGCACGTGGAGGC
GTAGGCACGTGGGAGC
TGCGGCACGTGTAGGC
TAATGCACGTGGCGTT
TTGCACACGTGGGATG

Relative binding free energy, -0.06 kcal/mol:
GCTAGCACGTGGTGTT
TCGAACACGTGGGGGA
AGTGTCACGTGTCATA
ATGTACACGTGGTAGA
GAGTACACGTGGGGAG

Relative binding free energy, 0.33 kcal/mol:
TGAATCACGTGAGCGG
AAGTTCACGTGCTTTG
CAGTTCACGTGTATGG
GGGTACACGTGAGCGG

Relative binding free energy, -0.02 kcal/mol:
AGGGACACGTGTGCAG
TTACGCACGTGTGGCA
TTAAGCACGTGTGTAA

Relative binding free energy, 0.22 kcal/mol:
TTTCTCACGTGGTTAT
GGCCTCACGTGTGGTT
GAATACACGTGTAGGG

Relative binding free energy, 0.12 kcal/mol:
GGGGGCACGTGATAAC
TATGTCACGTGGTAGC
TTCTGCACGTGATGGG
TTGGGCACGTGAGAGT
GAGTGCACGTGGATTA

Relative binding free energy, 0.24 kcal/mol:
TTATTCACGTGGAGGT
GACGTCACGTGTCGGG
GATCTCACGTGGTTTG
TAATTCACGTGTTGAA

Relative binding free energy, 0.31 kcal/mol:
CGGGACACGTGTTTTA
GTTATCACGTGGAAAT
TGTAGCACGTGAAAGA
GGTATCACGTGATCGG

Relative binding free energy, -0.15 kcal/mol:
TCTTGCACGTGTTATG
GGCAGCACGTGGGGAG
TGGGGCACGTGTGTGA
TATTGCACGTGGATAA
CGGGACACGTGGGGTG
CTAGTCACGTGCGGTG
ATTGGCACGTGGCTGC

Relative binding free energy, 0.27 kcal/mol:
TGTTTCACGTGTAGCT
AAGGACACGTGAGATG

Relative binding free energy, 0.35 kcal/mol:
GAGGTCACGTGTTTCA
TGTTTCACGTGAGCGC
CTTTTCACGTGCTCGT

Relative binding free energy, 0.29 kcal/mol:
TCTTTCACGTGGTATG
TAGTTCACGTGTTTGA

Relative binding free energy, -0.03 kcal/mol:
TGGCACACGTGGGAAG
TAGGACACGTGGATGA
AGTAGCACGTGTTGGG
GAAGACACGTGGGGCT
GTCAGCACGTGGTGTT
ACATGCACGTGTGAGG
AGTTGCACGTGATGCT
TAGTGCACGTGCAGGT

Relative binding free energy, 0.32 kcal/mol:
TTCTACACGTGGAGTT
TGATTCACGTGTACAG

Relative binding free energy, 0.58 kcal/mol:
GGATTCACGTGAATTT

Relative binding free energy, 0.13 kcal/mol:
CTCGGCACGTGTAGGC
TTGTACACGTGTGGTA
GGGGTCACGTGGGTTT
GGGGTCACGTGTCTAA
ATTATCACGTGTGTCG
TGGGTCACGTGGAGTA
GTAGGCACGTGTAAAT

Relative binding free energy, -0.07 kcal/mol:
GGCGGCACGTGCGGTA
GGGTCCACGTGGAGTA
TGGGCCACGTGGACGG

Relative binding free energy, 0.37 kcal/mol:
GTGCTCACGTGAGTTT

Relative binding free energy, -0.18 kcal/mol:
GGCTGCACGTGGGGTA
GGGGCCACGTGGACGG

Relative binding free energy, 0.04 kcal/mol:
AAACACACGTGTGGGG
CTGGTCACGTGGAGTG
GGGCACACGTGGGATT
GTCGACACGTGTGAGG
AGATGCACGTGTGATA

Relative binding free energy, -0.27 kcal/mol:
TTTAGCACGTGGGCTG

Relative binding free energy, 0.36 kcal/mol:
AGAGTCACGTGAAAGT
CGGTCCACGTGAGTTG
TTAATCACGTGAAGTT

Relative binding free energy, 0.21 kcal/mol:
GGTATCACGTGACGTT

Relative binding free energy, -0.25 kcal/mol:
AGGTGCACGTGGCTAT

Relative binding free energy, -0.3 kcal/mol:
AGCGGCACGTGGGGCG

Relative binding free energy, 0.14 kcal/mol:
TAGTGCACGTGATAAT
TTAGTCACGTGGTAAA
GCATACACGTGTGTGT
CGTAACACGTGAGTGG
TGTATCACGTGCATTA

Relative binding free energy, 0.16 kcal/mol:
GACATCACGTGTTTTG
TCGGGCACGTGAGTAG
TCTTACACGTGGTTTG

Relative binding free energy, -0.41 kcal/mol:
TGGTGCACGTGGTCAA

Relative binding free energy, -0.05 kcal/mol:
CTGGGCACGTGGTTTT
AAAGCCACGTGGGTTT
TTTGGCACGTGTTAAC
TTCGGCACGTGTCGGG

Relative binding free energy, -0.14 kcal/mol:
AACGGCACGTGGTGCG
GTCTGCACGTGGGGGG
GTTGACACGTGGGTTC

Relative binding free energy, 0.15 kcal/mol:
GGGTGCACGTGAGGCT
TCGATCACGTGTAAGG
AGTTTCACGTGGTCGA
TTCTGCACGTGGTTTA

Relative binding free energy, 0.05 kcal/mol:
AGTATCACGTGCTAGT

Relative binding free energy, 0.39 kcal/mol:
GTATTCACGTGTGACT
TCGTTCACGTGAATTT
GGTATCACGTGAGTGT

Relative binding free energy, 0.23 kcal/mol:
AGTTTCACGTGTAACG
TAGTTCACGTGCTGGG
ATATTCACGTGTTTGC
ACTGACACGTGAGGTG
TATTGCACGTGAGCTT
ATTTTCACGTGGTTAG
TAGTCCACGTGAGTGT

Relative binding free energy, 0.53 kcal/mol:
TGGAACACGTGAGCTA

Relative binding free energy, 0 kcal/mol:
TATAGCACGTGATCGT
AATGTCACGTGGGTGT
CGCGTCACGTGCGGGG
AGTAGCACGTGATCGG
TGGGGCACGTGACGTG
TCAGTCACGTGGGGTG
GTTGACACGTGCTGCG

Relative binding free energy, -0.22 kcal/mol:
TATGGCACGTGTTGAA
GCGCGCACGTGGTGAG

Relative binding free energy, -0.09 kcal/mol:
CTATGCACGTGTTGTA
TATGACACGTGGCTGT
GTTAGCACGTGGCTAG
GTTTACACGTGGGTAT
TTTGGCACGTGTCGAG
AAGCGCACGTGTGTGG
GATCACACGTGGGGGT
ACGGGCACGTGTTGGT

Relative binding free energy, 0.03 kcal/mol:
GTTGACACGTGCTTTT
TATATCACGTGTCGTG
AAGGTCACGTGGATGT

Relative binding free energy, -0.12 kcal/mol:
TTGGGCACGTGGTTTC
TGGTACACGTGGGCTG
TTAGTCACGTGGCGTG

Relative binding free energy, 0.19 kcal/mol:
TTATTCACGTGTCTAG
ATGTTCACGTGGGATG
TTGTACACGTGAGCTG
GTTTGCACGTGTGGAA

Relative binding free energy, 0.28 kcal/mol:
GATTTCACGTGTCAGT
TACGTCACGTGTGTTG
GCATTCACGTGGTTAT
TCATTCACGTGGGAGA

Relative binding free energy, -0.19 kcal/mol:
AGTGGCACGTGCCTGT
TGCGGCACGTGGGGCA
GATCGCACGTGGGGTA

Relative binding free energy, 0.18 kcal/mol:
AGTGACACGTGTTTAC
CATCTCACGTGTGTTT
GAGGTCACGTGGTCTG

Relative binding free energy, -0.23 kcal/mol:
CCGTGCACGTGGGGTA

Relative binding free energy, -0.32 kcal/mol:
ACAGGCACGTGGGGCG

Relative binding free energy, 0.26 kcal/mol:
AGAATCACGTGCGGTG

Relative binding free energy, 0.07 kcal/mol:
ATGAGCACGTGTGGTT
GGGTACACGTGGACTT
TATTCCACGTGGATGT

Relative binding free energy, 0.17 kcal/mol:
TTTTACACGTGTTAAA
TATGGCACGTGAGACT

Relative binding free energy, 0.09 kcal/mol:
TAAATCACGTGTTTTT
TAGTACACGTGCAGTT
TGGAACACGTGTTTTT
CGTGACACGTGGTGAG

Relative binding free energy, 0.25 kcal/mol:
ATATACACGTGAAAGG
AGATACACGTGTGTGT
AACTTCACGTGGAGGT

Relative binding free energy, 0.11 kcal/mol:
GGGGACACGTGTCGGG
ATATGCACGTGATGAG
TGGTGCACGTGGATCC
CGCGTCACGTGAGGAG
CTTGTCACGTGTTAAA
GGATGCACGTGCGAGG
TTATGCACGTGAGCTG

Relative binding free energy, -0.1 kcal/mol:
TTCGGCACGTGGTAAG
TTTGGCACGTGCTGTC
ACATGCACGTGCGGTG
TAAGCCACGTGGTGGA

Relative binding free energy, -0.26 kcal/mol:
AGTGGCACGTGGGGGT
TGAAGCACGTGTTCGG
